About 14,000 (4.5%) of roughly 310,000 compounds showed an effect of 50% or more. Effects have a minus sign here. Some of the results follow.
target: human ether-à-go-go-related gene (hERG) potassium channel (human, UniProt Q12809); test: primary screen, population patch clamp on CHO cells stably expressing hERG
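Further: peak tail current of the secondary pulse compared with the same well before compound.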

Chain of human ether-à-go-go-related gene (hERG) potassium channel (Q12809 whole entry, looked up): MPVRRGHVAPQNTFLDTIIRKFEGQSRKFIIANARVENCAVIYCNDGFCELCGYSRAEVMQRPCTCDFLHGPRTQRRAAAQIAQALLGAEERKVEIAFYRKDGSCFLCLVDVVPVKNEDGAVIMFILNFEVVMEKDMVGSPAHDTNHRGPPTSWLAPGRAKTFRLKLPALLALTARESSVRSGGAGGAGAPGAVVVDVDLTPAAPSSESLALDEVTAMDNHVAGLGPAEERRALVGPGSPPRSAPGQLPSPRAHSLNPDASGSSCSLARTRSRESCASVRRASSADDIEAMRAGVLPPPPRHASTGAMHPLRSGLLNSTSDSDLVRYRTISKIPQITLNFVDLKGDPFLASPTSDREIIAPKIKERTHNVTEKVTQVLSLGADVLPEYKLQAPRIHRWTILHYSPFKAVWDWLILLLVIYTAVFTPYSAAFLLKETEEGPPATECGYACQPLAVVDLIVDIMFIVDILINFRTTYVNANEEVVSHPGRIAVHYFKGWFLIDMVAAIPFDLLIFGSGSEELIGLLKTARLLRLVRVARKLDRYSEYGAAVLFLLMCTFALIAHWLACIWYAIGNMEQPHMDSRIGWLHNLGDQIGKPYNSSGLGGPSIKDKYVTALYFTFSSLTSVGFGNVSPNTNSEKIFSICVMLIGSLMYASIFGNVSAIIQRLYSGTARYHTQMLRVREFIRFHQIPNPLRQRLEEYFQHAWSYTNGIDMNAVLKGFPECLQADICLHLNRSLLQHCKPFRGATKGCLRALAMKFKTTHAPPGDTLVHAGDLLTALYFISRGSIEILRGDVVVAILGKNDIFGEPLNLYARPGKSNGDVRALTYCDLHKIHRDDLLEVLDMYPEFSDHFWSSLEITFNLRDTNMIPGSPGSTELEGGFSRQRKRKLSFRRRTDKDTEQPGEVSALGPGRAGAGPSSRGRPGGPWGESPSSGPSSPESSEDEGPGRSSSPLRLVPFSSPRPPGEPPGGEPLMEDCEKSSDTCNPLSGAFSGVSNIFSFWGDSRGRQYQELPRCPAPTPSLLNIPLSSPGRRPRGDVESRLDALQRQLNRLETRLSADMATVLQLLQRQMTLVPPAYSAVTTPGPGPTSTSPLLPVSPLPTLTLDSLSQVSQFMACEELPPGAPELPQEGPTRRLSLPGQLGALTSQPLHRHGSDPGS

| SMILES | hERG current change (%, negative = inhibition) at 10uM [%] |
| --- | --- |
| O=C(/C=C/c1ccccc1)N/C(=C/c1ccccc1)C(=O)Nc1ccc(C(=O)O)cc1 | 19.6 |
| COc1ccc(NC(=O)CSc2nnnn2C2CC3C=CC2C3)cc1 (stereo not drawn) | -10.5 |
| CC(C)CN1CCN(Cc2c[nH]c3ccccc23)CC1CCO (stereo not drawn) | 4.11 |
| COc1cc([N+](=O)[O-])ccc1NC(=O)Nc1cccnc1 | 12.3 |
| NC(=O)NC(=O)COC(=O)c1ccccc1Oc1ccccc1 | -6.45 |
| COc1ccc(C(=O)OCC(=O)N(C)C2CCS(=O)(=O)C2)cc1S(=O)(=O)N1CCCc2ccccc21 (stereo not drawn) | -8.39 |
| CCn1nc(C)c(CN2CCN(Cc3cccc(OC)c3)C(CCO)C2)c1C (stereo not drawn) | -6.7 |
| Cc1ccccc1NS(=O)(=O)c1nnc(NC(=O)c2ccc(Br)cc2)s1 | 17.8 |
| CC1CCN(CCOCCOc2ccccc2-c2ccccc2)CC1 | -57.2 |
| COC(=O)C(Cc1csc2ccc(Cl)cc12)NC(=O)c1ccc(Cl)cc1 (stereo not drawn) | -8.71 |
| Cc1ccccc1-n1cnc2c(sc3nc(N4CCOCC4)c4c(c32)CCCC4)c1=O | -5.23 |
| COc1cccc(NC(=O)[C@@H]2CCCN2C(=O)[C@@H]2Cc3ccccc3CN2C(=O)OC(C)(C)C)c1 | 4.94 |
| COc1ccc(S(=O)(=O)Cc2ccc(C(=O)N3CCC4(CC3)OCCO4)o2)cc1 | -10.1 |
| NC(=O)Cn1nc(C(F)(F)F)c2c1CCCC2 | 18.4 |
| Nc1c(Cl)c(Cl)nc(C(=O)N/N=C/c2cccnc2)c1Cl | -3.18 |
| Nn1c(Nc2ccccc2)nc2sc3c(c2c1=O)CCCC3 | 2.2 |
| C=CCc1ccc(OCC(O)CN2CCc3ccccc3C2)c(OC)c1.Cl (stereo not drawn) | -68.8 |
| CCCN(CCC)C(=O)c1c(C)[nH]c(C(=O)OCC)c1C | 9.79 |
| CCOC(=O)c1c(C)[nH]c(C(=O)CN2C(=O)NC(C)(c3ccc4ccccc4c3)C2=O)c1C (stereo not drawn) | -0.934 |
| COCCn1c(CN(Cc2ccccc2)Cc2ccccc2)nc2c1c(=O)n(C)c(=O)n2C | -62.8 |
| O=C(O)c1ccccc1C(c1ccc(O)cc1)c1ccc(O)cc1 | 18.3 |

| SMILES | hERG current change (%, negative = inhibition) at 10uM [%] |
| --- | --- |
| CCn1c(COc2ccccc2)nnc1SCC(=O)Nc1ccc2c(c1)OCCO2 | -6.9 |
| CC(=O)N1CCN(c2cc(N3CCCC3)c(F)cc2[N+](=O)[O-])CC1 | 5.05 |
| Cc1ccc(S(=O)(=O)Nc2ccccc2/C=N/c2nc3ccccc3n2C(C)C)cc1 | -16.4 |
| CN(C)S(=O)(=O)c1ccc(C(=O)NCCN2C(=O)S/C(=C\c3cccnc3)C2=O)cc1 | -27 |
| CCCS(=O)(=O)c1ccc(COC(=O)Cc2ccc([N+](=O)[O-])cc2)cc1 | -48.5 |
| COc1cc(OC)c(OC)cc1/C=N/NC(=O)c1cnccn1 | 2.07 |
| CCOc1ccccc1OCC(=O)OCC(=O)c1c(C)[nH]c2ccccc12 | 3.42 |
| COc1ccc(NC(=O)CN(C)C(=O)c2ccc(NS(=O)(=O)c3ccc(C)c([N+](=O)[O-])c3)cc2)cc1 | -2.55 |
| C=COCCn1c(C)c(C(=O)OCC)c2cc(O)ccc21 | 6.49 |
| CC(c1ccccc1)N1CCn2c(nc3cc(NC(=O)c4cccs4)ccc32)C1 (stereo not drawn) | -23.4 |
| Cc1ccc(C2CC(=O)C=C(NCc3ccccc3)C2)cc1 (stereo not drawn) | -38.8 |
| COc1ccc(CCNC(=O)COc2ccc(N(C)S(=O)(=O)c3ccc(C)cc3)cc2)cc1 | 6.95 |
| COc1ccc(CNC(=O)[C@H](Cc2c[nH]c3ccccc23)NC(=O)[C@@H]2Cc3ccccc3CN2)cc1 | -53.9 |
| O=C(Nc1ccc(C(F)(F)F)cc1)C1=NN(C2CCS(=O)(=O)C2)C(=O)CC1 (stereo not drawn) | -8.18 |
| CC(C)Cn1c(=O)c(C(=O)Nc2cnccn2)c(O)c2ccccc21 | 9.07 |
| CCCP(=O)(CC(=O)O)c1ccccc1 (stereo not drawn) | 10.6 |
| O=C(NC1CCCCC1)C1CCN(S(=O)(=O)N2CCOCC2)CC1 | 5.92 |
| C=CCSC(=C(C#N)C#N)c1cc2c([nH]1)CCCC2 | -1.75 |
| O=C(CN(Cc1ccccc1)S(=O)(=O)c1ccc(F)cc1)NCc1ccccn1 | -10.6 |
| Cc1ccc(C(=O)O)cc1NC(=O)C1CCCN1S(=O)(=O)c1cccc2nsnc12 (stereo not drawn) | 10.9 |
| CC1=C(C(=O)Nc2ccccc2)C(c2ccccn2)n2nc(CCCO)nc2N1 (stereo not drawn) | 8.03 |

| SMILES | hERG current change (%, negative = inhibition) at 10uM [%] |
| --- | --- |
| O=S(=O)(NCCSc1ccc(Cl)cc1)c1ccc(F)cc1 | 0.267 |
| Cc1nn(CCCC(=O)Nc2sc3c(c2C#N)CCC3)c(C)c1[N+](=O)[O-] | -8.25 |
| O=C(Nc1ccccc1N1CCOCC1)c1cccc([N+](=O)[O-])c1 | -17.7 |
| N#Cc1c(NC(=O)COC(=O)c2nccnc2N)sc2c1CCCC2 | -3.17 |
| CN1C(=O)/C(=C/C=C2\SCCN2C)OC1=S | 15.6 |
| Cc1c(-c2csc(N)n2)cnn1C | 15.5 |
| Cc1ccc(C(=O)NC(=S)Nc2ccc3[nH]c(=O)[nH]c3c2)cc1C | 11.2 |
| CC(=O)c1ccc(N2CCN(C(=O)CCC(=O)Nc3ccc4nc(N5CCN(C)CC5)cc(C)c4c3)CC2)cc1 | 20.3 |
| CCc1cc(=O)oc2cc(C)cc(OCC(=O)NCC3CCC(C(=O)O)CC3)c12 (stereo not drawn) | 4.34 |
| O=C(Nc1ccccc1C(=O)NCC1CCCO1)c1ccccc1 (stereo not drawn) | -7.42 |
| CCN(CC)S(=O)(=O)c1ccc(O)c(C(=O)OCC(=O)NC2CCCC2)c1 | -3.07 |
| O=C(O)CN1C(=O)/C(=C\c2ccccc2OCc2ccc(Cl)cc2Cl)SC1=S | 13 |
| Cc1ccc(OCC(=O)Nc2ccc(CN3CCCCC3)cc2)c(C)c1 | -69.4 |
| Br.C1=C(c2ccccc2)N2CCN=C2S1 | -7.6 |
| O=C(O)C1CCCCC1C(=O)Nc1ccc(S(=O)(=O)N2CCCCC2)cc1 (stereo not drawn) | 12.5 |
| CCOC(=O)CCS(=O)(=O)c1nc(-c2ccccc2)cc(C(F)(F)F)n1 | -19.4 |
| CC(C)C(C)(C#N)NC(=O)CSc1ncnc2sc(-c3ccccc3)cc12 (stereo not drawn) | -6.64 |
| COc1ccc2nc(/N=C/c3cccc(OC)c3O)sc2c1 | 2.75 |
| Cc1ccc(N2C(=O)C3C(c4ccccc4)N4CCCN4C3(C)C2=O)cc1 (stereo not drawn) | -0.37 |
| CCc1noc(C)c1C(=O)NNC(=O)c1ccccc1 | -1.03 |
| NC(=O)c1nsc(C(=O)N(c2ccc3c(c2)OCCO3)C(C(=O)NCC2CCCO2)c2ccc(F)cc2)c1N (stereo not drawn) | -16.4 |

| SMILES | hERG current change (%, negative = inhibition) at 10uM [%] |
| --- | --- |
| COc1cc(C(=O)NNC(=O)c2ccc(NC(=O)C(C)(C)C)cc2)cc(OC)c1OC | 7.94 |
| CCOC(=O)c1c(/N=C/c2c(O)n(-c3ccc(F)cc3)c(=S)[nH]c2=O)sc2c1CCCC2 | 14.4 |
| COc1ccc(C2=NN(c3nc4ccccc4s3)C(=O)/C2=C\N(C)C)cc1 | 15.7 |
| Cc1ccc(-c2nnn(CC(=O)N(Cc3cccs3)C(C(=O)NC3CCCCC3)c3ccco3)n2)o1 (stereo not drawn) | -4.06 |
| COC(C/C=C/[C@@H](O)COCc1ccccc1)OC | 1.32 |
| O=C(CCCCCNC(=O)N1CCn2c1nc1ccccc12)NCCc1ccccc1 | 9.42 |
| COC(=O)c1ccccc1NCC(=O)c1ccc(OC)cc1 | 14.1 |
| N#C/C(=C/c1ccc([N+](=O)[O-])cc1)C(=O)Nc1ccccc1O | 4.73 |
| CC(C)C(NC(=O)c1c(F)cccc1F)C(=O)NCC(c1ccccc1)N(C)C (stereo not drawn) | 9.22 |
| O=S(=O)(c1cccc2nsnc12)N1CCN(Cc2ccccc2)CC1 | 2.46 |
| CCOC(=O)C1CCN(C(=O)c2ccc(OC3CCN(C(=O)CCOC)CC3)cc2)CC1 | 8.91 |
| Cn1cccc1CC(=O)N/N=C\c1ccccc1 | 15.4 |
| Cc1cc(OCC(=O)N2CCC(O)(c3ccc(Cl)cc3)CC2)c2c(C)cc(=O)oc2c1 | 4.23 |
| Cn1ccnc1SCc1cn2ccccc2n1 | 10.7 |
| COc1cc(C(=O)NCCSc2ccc(F)cc2)cc(OC)c1OC | -10.7 |
| O=C(COc1ccc(Cl)cc1Cl)Nc1ccc2nc3n(c(=O)c2c1)CCCC3 | 0.771 |
| O=C(O)c1cc(S(=O)(=O)Nc2ccc3c(c2)OCCO3)c(Cl)cc1Cl | -1.96 |
| Cc1ccc(C(=O)NCc2nnc(SCC(=O)NC(C)c3ccccc3)n2C)cc1 (stereo not drawn) | 11.8 |
| CCSc1nc2c(c(=O)[nH]1)C(c1cccnc1)C(C(=O)OC)=C(C)N2 (stereo not drawn) | 7.31 |
| CCN(CCCNC(=O)COc1cc(=O)n(CC)c2ccccc12)c1ccccc1 | -52.5 |
| COc1ccc(C2C(C(=O)c3ccc(C)o3)=C(O)C(=O)N2Cc2cccnc2)cc1OC (stereo not drawn) | 16.8 |

Source: PMC4336329 (PLoS ONE, 2015)
